Results published in the supplement of paper PMC9446081.
About 220 (0.56%) of roughly 39,000 compounds showed activity. Some of the results follow.

test system: Escherichia coli K-12 BW25113; assay: relative growth (OD600 normalised to plate interquartile mean) (fraction); higher = less growth inhibition, active = 0.2 or less; conditions: 50 µM; LB; incubation time: overnight (16-24 h)
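Also: static incubation at 37 °C against the wild-type strain, values averaged over two biological replicates.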

SMILES	relative growth
CC(C)NC(=O)N(C)C[C@@H]1OCCCC[C@H](C)Oc2ccc(NC(=O)C3CCCCC3)cc2C(=O)N([C@H](C)CO)C[C@H]1C	inactive: 1.03
Cc1ccc(S(=O)(=O)N(C)C[C@H]2Oc3ccc(NC(=O)NC(C)C)cc3C(=O)N([C@H](C)CO)C[C@@H]2C)cc1	inactive: 0.959
C[C@@H]1CCCCO[C@H](CN(C)C(=O)Nc2ccc(C(F)(F)F)cc2)[C@H](C)CN([C@H](C)CO)C(=O)c2cc(NS(=O)(=O)c3ccc(Cl)cc3)ccc2O1	inactive: 1.03
CN1CCC(OC(c2ccccc2)c2ccccc2)CC1.Cl	inactive: 1.02
COC1CC2CCC(C)C(O)(O2)C(=O)C(=O)N2CCCCC2C(=O)OC(C(C)CC2CCC(O)C(OC)C2)CC(=O)C(C)C=C(C)C(O)C(OC)C(=O)C(C)CC(C)C=CC=CC=C1C (stereo unspecified)	inactive: 1.01
COc1cccc(CNC(=O)C[C@H]2C=C[C@@H](NC(=O)C3CCOCC3)[C@H](CO)O2)c1	inactive: 0.957
C[C@H]1CN([C@@H](C)CO)C(=O)CCCn2nncc2CO[C@H]1CN(C)C(=O)c1ccc(N2CCN(C)CC2)cc1	inactive: 0.987
C[C@H](CO)N1C[C@H](C)[C@H](CN(C)C(=O)C2CCCCC2)OCCCC[C@H](C)Oc2ccc(NC(=O)Nc3cccc4ccccc34)cc2C1=O	inactive: 1.03
CC(O)CN(CCN(CC(C)O)CC(C)O)CC(C)O (stereo unspecified)	inactive: 0.938
Cc1noc(C)c1NC(=O)N(C)C[C@@H]1OCCCC[C@H](C)Oc2ccc(NC(=O)CCC(F)(F)F)cc2C(=O)N([C@H](C)CO)C[C@H]1C	inactive: 1
Cc1noc(C)c1S(=O)(=O)Nc1ccc2c(c1)CC(=O)N([C@H](C)CO)C[C@H](C)[C@@H](CN(C)C(=O)NC(C)C)O2	inactive: 0.962
COc1ccc(S(=O)(=O)N2C[C@H](O)COC[C@@H]3O[C@H](CC(=O)N[C@@H]4CCN(Cc5ccccc5)C4)CC[C@H]32)cc1	inactive: 1
COCC#Cc1ccc2c(c1)O[C@@H](CN(C)C(=O)CN(C)C)[C@H](C)CN([C@H](C)CO)S2(=O)=O	inactive: 0.986
COc1cccc(NC(=O)N[C@@H]2C=C[C@@H](CC(=O)N3CCOCC3)O[C@@H]2CO)c1	inactive: 1.02
CC(=O)N1c2ccccc2C2=NNC(=S)N[C@]21O	inactive: 0.994
C[C@@H]1CCCCO[C@@H](CN(C)C(=O)Nc2ccccc2)[C@@H](C)CN([C@@H](C)CO)C(=O)c2cc(NC(=O)NC3CCCCC3)ccc2O1	inactive: 1.01
Nc1ccc(Nc2ccccc2)cc1	inactive: 1.03
C[C@H](CO)N1C[C@H](C)[C@@H](CN(C)Cc2ccncc2)Oc2ccc(NC(=O)Nc3ccc(C(F)(F)F)cc3)cc2CC1=O	inactive: 1
COc1ccc(NC(=O)N(C)C[C@H]2Oc3cc(C#CCN(C)C)ccc3S(=O)(=O)N([C@H](C)CO)C[C@H]2C)cc1	inactive: 1
C[C@H](CO)N1C[C@H](C)[C@H](CN(C)C(=O)CCC(F)(F)F)OCCCC[C@H](C)Oc2ccc(NS(=O)(=O)c3ccc(Cl)cc3)cc2C1=O	inactive: 1.01
O=C(Nc1ccno1)N1CCOCC1	inactive: 0.996

SMILES	relative growth
O=C(O)C[C@H]1CC[C@@H]2[C@H](COC[C@@H](O)CN2S(=O)(=O)c2ccc(F)cc2)O1	inactive: 1.01
C[C@@H]1CN([C@@H](C)CO)C(=O)c2cc(NC(=O)Cn3cnnn3)ccc2O[C@@H]1CN(C)S(=O)(=O)c1cccs1	inactive: 1.02
COCC(=O)Nc1ccc2c(c1)C(=O)N(C)C[C@@H](OC)[C@H](C)CN(Cc1ccccc1F)[C@@H](C)CO2	inactive: 1.01
CC(C)[C@H]1NC(=O)CNC1=O	inactive: 1.01
C[C@@H]1CN([C@H](C)CO)C(=O)c2cccc(NC(=O)C3CCOCC3)c2O[C@@H]1CN(C)S(=O)(=O)c1ccc(Cl)cc1	inactive: 1.01
C[C@H]1CCCCO[C@H](CN(C)C(=O)CCCN(C)C)[C@@H](C)CN([C@@H](C)CO)C(=O)c2cc(NC(=O)Nc3cccc4ccccc34)ccc2O1	inactive: 1.03
O=C(O)CCCCCCCC(=O)O	inactive: 1.12
C[C@@H]1CCCCO[C@@H](CN(C)S(C)(=O)=O)[C@@H](C)CN([C@H](C)CO)C(=O)c2cc(NC(=O)c3ccncc3)ccc2O1	inactive: 0.987
C[C@@H]1CN([C@@H](C)CO)C(=O)Cc2cc(NS(=O)(=O)c3cccs3)ccc2O[C@@H]1CN(C)S(=O)(=O)c1cn(C)cn1	inactive: 0.981
COc1ccccc1CNC(=O)C[C@@H]1C[C@H]2c3cc(NC(=O)c4cccnc4)ccc3O[C@H]2[C@H](CO)O1	inactive: 0.99
COc1ccc(CN(C)C[C@H]2Oc3ccc(NC(=O)Cn4cnnn4)cc3CC(=O)N([C@H](C)CO)C[C@H]2C)cc1	inactive: 1.02
C[C@@H]1CN([C@H](C)CO)S(=O)(=O)c2ccc(C#Cc3ccncc3)cc2O[C@@H]1CN(C)S(=O)(=O)c1ccccc1	inactive: 1.01
C[C@@H]1CN([C@H](C)CO)C(=O)c2cccc(NC(=O)c3nc4ccccc4s3)c2O[C@@H]1CN(C)S(C)(=O)=O	inactive: 1.01
Cc1noc(C)c1NC(=O)N(C)C[C@@H]1OCCCC[C@@H](C)Oc2ccc(NC(=O)Cc3ccccc3)cc2C(=O)N([C@H](C)CO)C[C@@H]1C	inactive: 0.998
CO[C@H](C(=O)N(C)C[C@@H]1OCc2ccccc2-c2c(n(C)c3ccccc23)C(=O)N([C@@H](C)CO)C[C@@H]1C)c1ccccc1	inactive: 1.01
COc1ccc(NC(=O)Nc2cccc3c2O[C@H](CN(C)Cc2ccc(Oc4ccccc4)cc2)[C@H](C)CN([C@@H](C)CO)C3=O)cc1	inactive: 0.931
FC(F)(F)C(Cl)Br (stereo unspecified)	inactive: 0.978
CN(C)CCCNC(=O)C[C@@H]1CC[C@H]2[C@H](COc3ccc(NC(=O)c4cccc(F)c4)cc3C(=O)N2C)O1	inactive: 1.02
O=C(O)CN1C(=O)c2cccc3cccc(c23)C1=O	inactive: 0.99
C[C@H](CO)N1C[C@H](C)[C@H](CN(C)CC2CC2)Oc2c(NS(=O)(=O)c3ccc(F)cc3)cccc2C1=O	inactive: 0.997
COCC(=O)N(C)C[C@@H]1Oc2cc(-c3ccc(C#N)cc3)ccc2S(=O)(=O)N([C@@H](C)CO)C[C@H]1C	inactive: 1

SMILES	relative growth
COc1ccc(S(=O)(=O)Nc2ccc3c(c2)C(=O)N([C@@H](C)CO)C[C@@H](C)[C@@H](CN(C)S(=O)(=O)c2cccs2)O3)cc1	inactive: 1.02
CC(=O)N1Cc2cc(C(=O)NCc3cccc(F)c3)nc(-c3cccc(C4=CCCCC4)c3)c2[C@H]1CCO	inactive: 0.856
COc1cccc(S(=O)(=O)N2C[C@H](O)COC[C@@H]3O[C@H](CC(=O)N4CCN(C)CC4)CC[C@H]32)c1	inactive: 1
C[C@@H]1CCCCO[C@@H](CN(C)S(=O)(=O)c2cn(C)cn2)[C@@H](C)CN([C@@H](C)CO)C(=O)c2cc(NC(=O)Nc3ccc(C(F)(F)F)cc3)ccc2O1	inactive: 0.989
C[C@@H]1CN([C@H](C)CO)C(=O)c2cc(NS(=O)(=O)c3ccc(Cl)cc3)ccc2O[C@@H](C)CCCCO[C@H]1CN(C)Cc1ccc(C(F)(F)F)cc1	inactive: 0.957
C[C@H](CO)N1C[C@H](C)[C@@H](CN(C)Cc2cccc(C(=O)O)c2)Oc2ncc(C#CC(C)(C)O)cc2C1=O	inactive: 1
CO[C@@H]1CN(C)C(=O)c2ccc(NC(=O)C3CC3)cc2OC[C@@H](C)N(C(=O)CN2CCOCC2)C[C@@H]1C	inactive: 0.993
C[C@@H]1CN([C@H](C)CO)C(=O)c2cccc(NS(=O)(=O)c3cccs3)c2O[C@H]1CN(C)Cc1ccc(-c2ccccc2)cc1	inactive: 0.996
C[C@H](CO)N1C[C@H](C)[C@H](CN(C)Cc2ccc(Oc3ccccc3)cc2)Oc2c(NC(=O)c3nc4ccccc4s3)cccc2C1=O	inactive: 1.02
C[C@@H]1CN([C@H](C)CO)C(=O)c2cccc(NC(=O)c3ccc(-c4nccs4)cc3)c2O[C@H]1CN(C)C(=O)Nc1cccc2ccccc12	inactive: 0.962
O=C(O)c1ccc2nc(O)c(=O)[nH]c2c1	inactive: 0.994
COC(=O)Nc1nc2cc(C(=O)c3cccs3)ccc2[nH]1	inactive: 1.06
CN1CCN(C(=O)C[C@@H]2C=C[C@H](NS(=O)(=O)c3cccc(F)c3)[C@H](CO)O2)CC1	inactive: 0.937
O=C1O[C@H](c2ccccc2)[C@H](c2ccccc2)N2[C@H]1[C@@H](C(=O)N1CCN(c3ncccn3)CC1)[C@]1(C(=O)Nc3ccc(C#CC4(O)CCCCCC4)cc31)[C@H]2c1ccc(O)cc1	inactive: 1.04
Cc1noc(C)c1NC(=O)N(C)C[C@@H]1Oc2c(NS(C)(=O)=O)cccc2C(=O)N([C@@H](C)CO)C[C@H]1C	inactive: 0.983
Cc1cc(C(=O)Nc2cccc3c2O[C@@H](CN(C)S(=O)(=O)c2ccccc2)[C@H](C)CN([C@H](C)CO)C3=O)n(C)n1	inactive: 0.961
C[C@@H]1CCCCO[C@H](CN(C)C(=O)Nc2cccc3ccccc23)[C@H](C)CN([C@H](C)CO)C(=O)c2cc(NC(=O)C3CCCCC3)ccc2O1	inactive: 1
C[C@@H]1CN([C@H](C)CO)C(=O)c2cccc(NC(=O)Nc3cccc4ccccc34)c2O[C@@H]1CN(C)Cc1ccc(Cl)c(Cl)c1	inactive: 1
C[C@@H]1CN([C@@H](C)CO)C(=O)c2cccc(NC(=O)c3cnccn3)c2O[C@@H]1CN(C)S(=O)(=O)c1ccc(F)cc1	inactive: 1.01
